# This is one part of the list.
# Target: T1, OsWOX13 (Oryza sativa, UniProt Q5QMM3 1-267)
# T1 sequence: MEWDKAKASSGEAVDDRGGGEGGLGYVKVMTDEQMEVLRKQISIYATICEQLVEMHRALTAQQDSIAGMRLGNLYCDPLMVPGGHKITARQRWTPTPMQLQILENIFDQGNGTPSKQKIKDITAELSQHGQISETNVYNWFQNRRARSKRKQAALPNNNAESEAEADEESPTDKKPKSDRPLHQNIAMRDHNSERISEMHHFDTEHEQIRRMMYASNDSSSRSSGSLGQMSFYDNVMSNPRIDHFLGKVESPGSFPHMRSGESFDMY
# Assay: protein-binding microarray (RPBM); PBS, 2% BSA, 51.3 ng/ul salmon testes DNA, 50 uM zinc acetate, 200 nM TF, 25 C, 1 h; high values mean tight binding
# Details: protein: recombinant; tags: N-terminal polyhistidine and DsRed monomer fusion (pET32a); label: CyDye5-dUTP incorporated in the synthesized complementary strand; 3' TTTTT single-stranded linker to array surface; dsDNA, one strand shown
# Method in brief: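 The binding signal is fluorescence intensity per array feature (arbitrary units). Readings came from an Axon 4000B scanner after a washed, 2% BSA-blocked, double-stranded custom Agilent array had been incubated for 1 h at 25 °C with 200 nM protein and 50 µM zinc acetate. The protein was a Ni–NTA-purified transcription factor fused N-terminally to polyhistidine and DsRed, expressed in E. coli BL21-CodonPlus.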
row,Sequence,binding signal
1,ATAACAATTATAATATCAAAATAGCATTTACCTGTTGCAACGGAGTCACCTAGTGCAG,3270 fluorescence intensity (a.u.)
2,GATAATCATGTTCGATTTTAAAATCTCAATGACAATAAAGCGGAGTCACCTAGTGCAG,3480 fluorescence intensity (a.u.)
3,CATTTTAAACATTAATTTATTTATATTATTTATTAACAACCGGAGTCACCTAGTGCAG,8620 fluorescence intensity (a.u.)
4,GTTAATTTTGTCGAGTTAATTGGATCTTTGCTTTGATGGGCGGAGTCACCTAGTGCAG,57600 fluorescence intensity (a.u.)
5,AACTAATTTAAATCGTGAGACGAATGTAACCCACATATGCCGGAGTCACCTAGTGCAG,30500 fluorescence intensity (a.u.)
6,AATCAATTGTGAAAATTATCTTCACACGTTGTTATGCATACGGAGTCACCTAGTGCAG,9260 fluorescence intensity (a.u.)
7,CTTAAATTTTATCAACAGCTGTAATGGAAGTCTTTCCTCACGGAGTCACCTAGTGCAG,14900 fluorescence intensity (a.u.)
8,ATTGTATTTGATTAAAGACATTGTATTCTGGTGTCAATTGCGGAGTCACCTAGTGCAG,3680 fluorescence intensity (a.u.)
9,TCCATAAAAGGTCAGAAATTGATTTACCTCTCCGAGCATACGGAGTCACCTAGTGCAG,5260 fluorescence intensity (a.u.)
10,ATAGATCAATCACAAAAGACACGACATTTAACATGGAAAACGGAGTCACCTAGTGCAG,8560 fluorescence intensity (a.u.)
11,AAACAAATTACATAATAGGTAAACTGCGAGACGGATTTATCGGAGTCACCTAGTGCAG,23300 fluorescence intensity (a.u.)
12,ATCAGTCATAAATTGCTGTGCTAATGGATGAGGGACGCAGCGGAGTCACCTAGTGCAG,6940 fluorescence intensity (a.u.)
13,GCCTGATTTGGGCCGGTAACACCGCCGTTTTCTAGGCCGGCGGAGTCACCTAGTGCAG,15600 fluorescence intensity (a.u.)
14,CCATTAATTTAGGACATCTCGAGCAGACAGAAGCAGGAGGCGGAGTCACCTAGTGCAG,13300 fluorescence intensity (a.u.)
15,TTCTAATTAAGTTTCCACTACATATGTGGCTTGCACTACACGGAGTCACCTAGTGCAG,16000 fluorescence intensity (a.u.)
16,CTCGTTGAATTGATCACCTACCGTGCATTTGCATTTGGTTCGGAGTCACCTAGTGCAG,3340 fluorescence intensity (a.u.)
17,TCAATGTCCAAAATGTCAATTAAAATGGAATCGAAGGGAGCGGAGTCACCTAGTGCAG,5570 fluorescence intensity (a.u.)
18,TCTAGAGATGTATATGTTTGATTGCTTGAGACAATCTCTTCGGAGTCACCTAGTGCAG,5900 fluorescence intensity (a.u.)
19,CACTAATGGAGTTGTTAGTGACAGGGCAGCTGCTCCTCTGCGGAGTCACCTAGTGCAG,7300 fluorescence intensity (a.u.)
20,ATTAATCCACAATTATCAAAAGTTTACTGTAGCATCACATCGGAGTCACCTAGTGCAG,5730 fluorescence intensity (a.u.)
21,ATAAAATGATGATTCCACAGAGAAGTTACGTACAGTCCTTCGGAGTCACCTAGTGCAG,3810 fluorescence intensity (a.u.)
22,CCAAATGGGACAAAAGATTGAAAAGAAAACTGACAGCCGCCGGAGTCACCTAGTGCAG,13900 fluorescence intensity (a.u.)
23,AATAATCAATAATCGTAAATGCGATAAATAAATTTCATAACGGAGTCACCTAGTGCAG,11000 fluorescence intensity (a.u.)
24,ATTAAAGATTGAAATGTATAGACATCAATGGTGCGATTTTCGGAGTCACCTAGTGCAG,14100 fluorescence intensity (a.u.)
25,ATCCATTCCGTTAATTAATCCAGAAATACTCCATTAGGCACGGAGTCACCTAGTGCAG,7480 fluorescence intensity (a.u.)
26,TCTCATGTCTTCTATAAATTTAAACACAAATTGTAGTACTCGGAGTCACCTAGTGCAG,4290 fluorescence intensity (a.u.)
27,CACACTGATTTGGTTCAATTCTGAACACCAAACATATTATCGGAGTCACCTAGTGCAG,14000 fluorescence intensity (a.u.)

row,Sequence,binding signal
1,CATTTTAATTGACGTTTTGGACAATGGCACGGTCTACAAACGGAGTCACCTAGTGCAG,36200 fluorescence intensity (a.u.)
2,ACATTCGAGATTTGCAGTCTCTATCAGTCACAAATAGGGGCGGAGTCACCTAGTGCAG,3860 fluorescence intensity (a.u.)
3,GGGCTGTAATTATTTTCAGACAGAGAGAGTATCCAAATTCCGGAGTCACCTAGTGCAG,6710 fluorescence intensity (a.u.)
4,CTATTAAATTGATTATATATGATTTGTAGTTTATAGTTGGCGGAGTCACCTAGTGCAG,65100 fluorescence intensity (a.u.)
5,GGAATCGATGTTAATTTTGTTACAGTATAAGAGGACGGTACGGAGTCACCTAGTGCAG,3270 fluorescence intensity (a.u.)
6,GCTAATTTAAATGTTTAAACTATGGTACTGATTGTTTTCTCGGAGTCACCTAGTGCAG,33900 fluorescence intensity (a.u.)
7,AACGTATGATTGATTGAGTTTTAATTATTACAAACTTAAACGGAGTCACCTAGTGCAG,35000 fluorescence intensity (a.u.)
8,TTTAATTTCGAATTCCTACTTGAATTCTTCTTTATTTTCTCGGAGTCACCTAGTGCAG,4070 fluorescence intensity (a.u.)
9,AACTTGATTAAAAGGAATGTTGAGATAATGTGTTAGAGATCGGAGTCACCTAGTGCAG,12800 fluorescence intensity (a.u.)
10,CTAGACTGATAAATTATAGCGTAAAAGTTCTCGTACCGTTCGGAGTCACCTAGTGCAG,29800 fluorescence intensity (a.u.)
11,TCTAATTTATACTTGATTTATTAGACACATTTTCCAAACACGGAGTCACCTAGTGCAG,25700 fluorescence intensity (a.u.)
12,CATGGTAATTTTGCACCATTAATCTATGTACTAGTAGTAGCGGAGTCACCTAGTGCAG,5780 fluorescence intensity (a.u.)
13,AATTGCCAAATTAAGTGAGGTTAATTAAGCACTGATGTCTCGGAGTCACCTAGTGCAG,8620 fluorescence intensity (a.u.)
14,ACATATTATTGACGTATAACCACATAAATAAATCCAAAGTCGGAGTCACCTAGTGCAG,7400 fluorescence intensity (a.u.)
15,TTTTACTATAATGAATAATTTAGACAGAGGTATATTCAGACGGAGTCACCTAGTGCAG,5390 fluorescence intensity (a.u.)
16,CACATACCTGATTTGATTGGTCCTAAAAGAGGATGCTAGACGGAGTCACCTAGTGCAG,31700 fluorescence intensity (a.u.)
17,CTTCTATCATCAACGACAAATCTCCCGTTGTCTTGTCTTCCGGAGTCACCTAGTGCAG,4060 fluorescence intensity (a.u.)
18,GTGTATCAATCATATGCCCTTTAATTTGAATTTAGAGATTCGGAGTCACCTAGTGCAG,21300 fluorescence intensity (a.u.)
19,AGTAGCTAATCTATAAATCAATTCGTAGTTAAACAAAGAGCGGAGTCACCTAGTGCAG,13100 fluorescence intensity (a.u.)
20,CCTTGATATGTTGGATTAGAGGAGAGACATGTTCGCTAGACGGAGTCACCTAGTGCAG,9730 fluorescence intensity (a.u.)
21,CCTGAAATTATAAATTATAAGATTACGTGATGACAAATAACGGAGTCACCTAGTGCAG,8250 fluorescence intensity (a.u.)
22,TAAAATCACGTTTTAAACGTAGCCACTTGTCCATTTTCCCCGGAGTCACCTAGTGCAG,4480 fluorescence intensity (a.u.)
23,TGCCAATCCACGCGCTTAATTAGCTTAATGCATTAAAGCACGGAGTCACCTAGTGCAG,19300 fluorescence intensity (a.u.)
24,GCTCTTAAATTTTAAGATGATTAATTTAGGTCTGGCCCGTCGGAGTCACCTAGTGCAG,22100 fluorescence intensity (a.u.)
25,ATTGCACAATTAAATTGATCACCTCAGTGACAGCCTTGTTCGGAGTCACCTAGTGCAG,22600 fluorescence intensity (a.u.)
26,ACACGTGATTTCTCACCGCTCGACGCTCGTCCTCTCCCCTCGGAGTCACCTAGTGCAG,6690 fluorescence intensity (a.u.)
27,TAATTAATTGAGTCATGCACATGTCTCTTTAATTTGGCTTCGGAGTCACCTAGTGCAG,45700 fluorescence intensity (a.u.)
